In paper PMC4561382, “Aven recognition of RNA G-quadruplexes regulates translation of the mixed lineage leukemia protooncogenes”:
These are yes or no findings as the source states them, for the method shown. Binding seen in cells or lysates may run through a third protein. Some results given as binding are weak or reduced against the parent protein; the word gives no strength. For some assays here: Sequences can lack the tags named with a protein.

The chains behind the UniProt entries cited, without tags or fusion partners. Where a name states a change or a piece, a line headed by the entry shows the natural chain unless it says otherwise. Residues count along the entry.
UniProt Q16637: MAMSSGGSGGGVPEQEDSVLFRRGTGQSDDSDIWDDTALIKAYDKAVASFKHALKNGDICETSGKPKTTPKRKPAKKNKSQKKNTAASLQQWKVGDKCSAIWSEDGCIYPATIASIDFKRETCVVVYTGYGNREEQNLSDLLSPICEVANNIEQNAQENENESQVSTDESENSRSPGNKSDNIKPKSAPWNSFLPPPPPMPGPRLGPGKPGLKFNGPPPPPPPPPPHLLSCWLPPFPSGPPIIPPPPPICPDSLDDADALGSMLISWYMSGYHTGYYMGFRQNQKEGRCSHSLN
GST-SMN Tudor domain: residues 91-151 of Q16637
UniProt Q9H7E2: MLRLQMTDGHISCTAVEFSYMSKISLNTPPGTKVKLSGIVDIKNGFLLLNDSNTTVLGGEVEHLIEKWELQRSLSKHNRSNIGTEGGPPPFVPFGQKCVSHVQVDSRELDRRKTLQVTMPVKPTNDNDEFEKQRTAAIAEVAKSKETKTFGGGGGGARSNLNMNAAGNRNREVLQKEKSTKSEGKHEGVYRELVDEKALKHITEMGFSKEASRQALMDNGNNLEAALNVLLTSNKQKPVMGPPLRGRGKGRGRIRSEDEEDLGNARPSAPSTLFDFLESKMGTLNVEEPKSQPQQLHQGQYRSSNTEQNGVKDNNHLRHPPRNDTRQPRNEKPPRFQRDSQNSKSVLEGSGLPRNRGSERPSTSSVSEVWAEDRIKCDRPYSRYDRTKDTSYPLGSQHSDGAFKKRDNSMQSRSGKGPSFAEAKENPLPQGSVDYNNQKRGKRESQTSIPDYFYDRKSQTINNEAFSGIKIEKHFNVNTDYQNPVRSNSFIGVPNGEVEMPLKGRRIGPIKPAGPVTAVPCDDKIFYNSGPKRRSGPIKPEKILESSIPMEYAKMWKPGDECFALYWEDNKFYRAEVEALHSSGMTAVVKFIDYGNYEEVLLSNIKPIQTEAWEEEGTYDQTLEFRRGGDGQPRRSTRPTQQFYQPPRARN
GST-TDRD3 Tudor domain: residues 555-615 of Q9H7E2
UniProt P97801: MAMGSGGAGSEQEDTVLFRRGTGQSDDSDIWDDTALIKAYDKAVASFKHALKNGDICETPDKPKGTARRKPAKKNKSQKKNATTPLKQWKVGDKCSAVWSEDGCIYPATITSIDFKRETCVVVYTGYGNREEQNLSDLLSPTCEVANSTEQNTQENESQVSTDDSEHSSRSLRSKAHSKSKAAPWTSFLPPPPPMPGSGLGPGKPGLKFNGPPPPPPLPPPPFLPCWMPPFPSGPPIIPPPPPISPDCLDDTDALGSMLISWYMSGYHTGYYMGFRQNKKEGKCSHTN

T1: FLAG-Aven (full-length human Aven) (human) (UniProt Q9NQS1)
T1 sequence (chain, methylarginines in the N-terminus (recognised by ASYM25b)): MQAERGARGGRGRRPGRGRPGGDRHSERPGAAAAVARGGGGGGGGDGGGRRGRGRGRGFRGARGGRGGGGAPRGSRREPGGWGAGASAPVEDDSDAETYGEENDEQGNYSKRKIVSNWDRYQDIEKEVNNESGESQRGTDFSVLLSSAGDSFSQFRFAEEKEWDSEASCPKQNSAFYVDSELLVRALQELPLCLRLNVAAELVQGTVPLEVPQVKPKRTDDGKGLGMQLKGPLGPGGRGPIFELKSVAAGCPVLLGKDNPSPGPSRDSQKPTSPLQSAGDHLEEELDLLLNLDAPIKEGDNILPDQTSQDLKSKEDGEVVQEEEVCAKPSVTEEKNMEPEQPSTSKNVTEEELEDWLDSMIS

T2: FLAG-AvenΔRGG (human Aven lacking amino acids 1-73) (human) (UniProt Q9NQS1)
T2 sequence: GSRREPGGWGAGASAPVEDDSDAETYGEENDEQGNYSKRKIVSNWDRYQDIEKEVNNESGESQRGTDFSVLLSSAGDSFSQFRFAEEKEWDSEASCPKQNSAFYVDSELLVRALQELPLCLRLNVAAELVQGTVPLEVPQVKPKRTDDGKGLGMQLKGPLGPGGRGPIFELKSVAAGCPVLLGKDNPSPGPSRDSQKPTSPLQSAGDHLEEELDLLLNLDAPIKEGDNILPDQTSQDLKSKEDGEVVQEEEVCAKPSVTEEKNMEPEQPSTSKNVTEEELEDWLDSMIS

T3: Aven, endogenous (mouse embryo fibroblasts) (mouse (endogenous in MEFs)) (UniProt Q9D9K3)
T3 sequence (chain, asymmetrically dimethylated by PRMT1 (ASYM25b) in untreated cells): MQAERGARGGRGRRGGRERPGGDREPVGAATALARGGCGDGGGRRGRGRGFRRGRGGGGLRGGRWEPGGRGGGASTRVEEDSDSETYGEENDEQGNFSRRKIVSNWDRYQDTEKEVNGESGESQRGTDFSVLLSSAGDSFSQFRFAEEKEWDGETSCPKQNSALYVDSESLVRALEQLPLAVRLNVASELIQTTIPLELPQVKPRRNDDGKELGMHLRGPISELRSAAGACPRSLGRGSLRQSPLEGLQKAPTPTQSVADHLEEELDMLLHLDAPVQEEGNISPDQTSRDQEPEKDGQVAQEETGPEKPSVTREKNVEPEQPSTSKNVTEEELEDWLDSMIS

T4: GST-SPF30 Tudor domain (UniProt O75940)
T4 sequence: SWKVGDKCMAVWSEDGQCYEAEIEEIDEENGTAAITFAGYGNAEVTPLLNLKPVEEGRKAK


Key:
[1] = target: T1, FLAG-Aven (full-length human Aven) (human); assay: co-IP; anti-FLAG immunoprecipitation of lysates of cells transfected with pcDNA3.1, FLAG-Aven or FLAG-AvenΔRGG; endogenous TDRD3, SMN or DHX36 by immunoblot; also FLAG-Aven with siControl or siPRMT1; lysis buffer 20 mM Tris pH 7.4, 150 mM NaCl, 1 mM EDTA, 1 mM EGTA, 1% Triton X-100
[2] = target: T2, FLAG-AvenΔRGG (human Aven lacking amino acids 1-73) (human); assay: as above
[3] = target: T3, Aven, endogenous (mouse embryo fibroblasts) (mouse (endogenous in MEFs)); assay: co-IP; anti-Aven immunoprecipitation of lysates of untreated (vehicle) PRMT1^FL/-;CreERT MEFs; immunoblot with anti-SMN and anti-TDRD3
[4] = target: T3, Aven, endogenous (mouse embryo fibroblasts) (mouse (endogenous in MEFs)); assay: condition: only PRMT1-deficient MEFs (+OHT for 6 days); co-IP; anti-Aven immunoprecipitation of lysates of PRMT1^FL/-;CreERT MEFs treated with OHT for 6 days (PRMT1-deficient); immunoblot with anti-SMN and anti-TDRD3
GST-SMN Tudor domain = GST-SMN Tudor domain (UniProt Q16637); assay: pull-down; 1 µg purified GST-Tudor protein on glutathione agarose incubated 1 hr at 4°C with lysates of transfected cells (U2OS in text and methods, HEK293T in the legend); washed three times with lysis buffer; anti-FLAG immunoblot; only the target purified
GST-SPF30 Tudor domain = target: T4, GST-SPF30 Tudor domain; assay: as above
GST-TDRD3 Tudor domain = GST-TDRD3 Tudor domain (UniProt Q9H7E2); assay: as above

binding [1]	binding [2]	binding [3]	binding [4]	binding (GST-SMN Tudor domain)	binding (GST-SPF30 Tudor domain)	binding (GST-TDRD3 Tudor domain)	Molecule
binds	no binding						SMN, endogenous (human cells) (from UniProt Q16637 1-294)
		binds	no binding				SMN, endogenous (mouse embryo fibroblasts) (from UniProt P97801 1-288)
binds	no binding						TDRD3, endogenous (human cells) (from UniProt Q9H7E2 1-651)
		binds	no binding				TDRD3, endogenous (mouse embryo fibroblasts) (from UniProt Q91W18 1-743)
				binds	binds weakly	binds	FLAG-Aven (full-length human Aven) (protein, UniProt Q9NQS1 1-362, methylarginines in the N-terminus (recognised by ASYM25b)) MQAERGARGGRGRRPGRGRPGGDRHSERPGAAAAVARGGGGGGGGDGGGRRGRGRGRGFRGARGGRGGGGAPRGSRREPGGWGAGASAPVEDDSDAETYGEENDEQGNYSKRKIVSNWDRYQDIEKEVNNESGESQRGTDFSVLLSSAGDSFSQFRFAEEKEWDSEASCPKQNSAFYVDSELLVRALQELPLCLRLNVAAELVQGTVPLEVPQVKPKRTDDGKGLGMQLKGPLGPGGRGPIFELKSVAAGCPVLLGKDNPSPGPSRDSQKPTSPLQSAGDHLEEELDLLLNLDAPIKEGDNILPDQTSQDLKSKEDGEVVQEEEVCAKPSVTEEKNMEPEQPSTSKNVTEEELEDWLDSMIS
				no binding	no binding	no binding	FLAG-AvenΔRGG (human Aven lacking amino acids 1-73) (domain or fragment, UniProt Q9NQS1 74-362) GSRREPGGWGAGASAPVEDDSDAETYGEENDEQGNYSKRKIVSNWDRYQDIEKEVNNESGESQRGTDFSVLLSSAGDSFSQFRFAEEKEWDSEASCPKQNSAFYVDSELLVRALQELPLCLRLNVAAELVQGTVPLEVPQVKPKRTDDGKGLGMQLKGPLGPGGRGPIFELKSVAAGCPVLLGKDNPSPGPSRDSQKPTSPLQSAGDHLEEELDLLLNLDAPIKEGDNILPDQTSQDLKSKEDGEVVQEEEVCAKPSVTEEKNMEPEQPSTSKNVTEEELEDWLDSMIS
